Source: PMC12311180
These are yes or no findings as the source states them, for the method shown. Binding seen in cells or lysates may run through a third protein. Some entries that bind do so weakly or less than the wild type.

Protein sequences, listed by entry. Tags and fused reporters are not part of them.
UniProt Q2PPJ7: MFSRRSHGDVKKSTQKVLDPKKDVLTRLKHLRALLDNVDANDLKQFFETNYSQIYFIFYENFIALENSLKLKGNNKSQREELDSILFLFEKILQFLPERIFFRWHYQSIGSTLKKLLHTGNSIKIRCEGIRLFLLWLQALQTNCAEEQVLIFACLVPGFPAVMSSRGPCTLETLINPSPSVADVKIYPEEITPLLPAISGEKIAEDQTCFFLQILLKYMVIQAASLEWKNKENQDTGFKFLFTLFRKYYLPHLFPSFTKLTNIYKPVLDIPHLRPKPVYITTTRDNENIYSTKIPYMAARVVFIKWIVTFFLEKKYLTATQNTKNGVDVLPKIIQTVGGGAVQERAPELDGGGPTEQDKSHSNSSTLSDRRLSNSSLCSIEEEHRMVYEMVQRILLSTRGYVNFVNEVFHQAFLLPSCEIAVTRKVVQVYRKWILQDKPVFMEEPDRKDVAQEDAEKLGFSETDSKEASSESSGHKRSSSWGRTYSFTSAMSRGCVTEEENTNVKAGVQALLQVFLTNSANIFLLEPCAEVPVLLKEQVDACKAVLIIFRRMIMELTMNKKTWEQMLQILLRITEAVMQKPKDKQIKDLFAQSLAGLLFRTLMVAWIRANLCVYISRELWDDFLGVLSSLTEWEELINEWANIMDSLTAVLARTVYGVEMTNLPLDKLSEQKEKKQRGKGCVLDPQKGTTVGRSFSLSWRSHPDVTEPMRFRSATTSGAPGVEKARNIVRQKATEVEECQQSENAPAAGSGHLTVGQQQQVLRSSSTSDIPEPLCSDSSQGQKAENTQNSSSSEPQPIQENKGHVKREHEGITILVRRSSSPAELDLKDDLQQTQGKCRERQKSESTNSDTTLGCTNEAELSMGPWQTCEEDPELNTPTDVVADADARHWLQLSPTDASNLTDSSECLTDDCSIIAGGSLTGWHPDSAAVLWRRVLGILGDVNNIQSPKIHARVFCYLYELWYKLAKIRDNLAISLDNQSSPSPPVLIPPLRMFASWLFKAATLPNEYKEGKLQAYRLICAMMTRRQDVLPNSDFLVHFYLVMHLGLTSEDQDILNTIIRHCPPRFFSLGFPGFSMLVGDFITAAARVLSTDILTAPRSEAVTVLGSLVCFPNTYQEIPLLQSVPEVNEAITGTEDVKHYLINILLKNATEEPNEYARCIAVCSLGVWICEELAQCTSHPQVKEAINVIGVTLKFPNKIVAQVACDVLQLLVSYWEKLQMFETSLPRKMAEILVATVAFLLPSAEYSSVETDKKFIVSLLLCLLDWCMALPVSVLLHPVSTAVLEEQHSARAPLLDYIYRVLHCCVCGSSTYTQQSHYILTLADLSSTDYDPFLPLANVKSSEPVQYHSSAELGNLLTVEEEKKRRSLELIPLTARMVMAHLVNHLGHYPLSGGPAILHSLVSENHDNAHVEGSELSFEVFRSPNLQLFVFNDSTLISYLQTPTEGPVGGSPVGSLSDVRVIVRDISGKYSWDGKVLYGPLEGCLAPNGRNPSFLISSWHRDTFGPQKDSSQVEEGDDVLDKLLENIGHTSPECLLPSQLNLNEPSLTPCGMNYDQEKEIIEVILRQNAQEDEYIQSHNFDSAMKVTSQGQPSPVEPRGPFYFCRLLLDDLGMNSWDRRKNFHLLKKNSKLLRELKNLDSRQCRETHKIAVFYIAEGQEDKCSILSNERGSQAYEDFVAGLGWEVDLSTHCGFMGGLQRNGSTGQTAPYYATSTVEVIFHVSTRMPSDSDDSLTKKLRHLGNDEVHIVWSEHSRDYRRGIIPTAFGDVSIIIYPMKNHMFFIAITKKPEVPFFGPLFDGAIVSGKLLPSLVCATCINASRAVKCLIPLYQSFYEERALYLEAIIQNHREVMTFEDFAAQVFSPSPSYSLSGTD

Columns and labels:
[1] = biological target: RGβ^D4 (V29E, V33Q, V37E, W65R), transiently expressed in HEK293FT cells for co-immunoprecipitation (UniProt Q86X10); assay: co-IP; transiently transfected HEK293T/HEK293FT cells; CoIP buffer 40 mM HEPES, 120 mM NaCl, 10 mM MgCl2, 0.3% CHAPS, pH 7.4; 3xflag beads 2-4 h; western blot
[2] = biological target: RGα2 full-length (RGα2^fl), transiently expressed in HEK293 cells for co-immunoprecipitation (UniProt Q2PPJ7); assay: as above

B1: RGβ^D4 (V29E, V33Q, V37E, W65R), transiently expressed in HEK293FT cells for co-immunoprecipitation (protein, UniProt Q86X10 1-1494)
chain: MYSEWRSLHLVIQNDQGHTSVLHSYPESEGREQANAEVRPLGQVLGTPSVAGSENLLKTDKEVKRTMEVICYGLTLPLDGETVKYCVDVYTDWIMALVLPKDSIPLPVIKEPNQYVQTILKHLQNLFVPRQEQGSSQIRLCLQVLRAIQKLARESSLMARETWEVLLLFLLQINDILLAPPTVQGGIAENLAEKLIGVLFEVWLLACTRCFPTPPYWKTAKEMVANWRHHPAVVEQWSKVICALTSRLLRFTYGPSFPAFKVPDEDASLIPPEMDNECVAQTWFRFLHMLSNPVDLSNPAIISSTPKFQEQFLNVSGMPQELNQYPCLKHLPQIFFRAMRGISCLVDAFLGISRPRSDSAPPTPVNRLSMPQSAAVSTTPPHNRRHRAVTVNKATMKTSTVSTAHASKVQHQTSSTSPLSSPNQTSSEPRPLPAPRRPKVNSILNLFGSWLFDAAFVHCKLHNGINRDSSMTAITTQASMEFRRKGSQMSTDTMVSNPMFDASEFPDNYEAGRAEACGTLCRIFCSKKTGEEILPAYLSRFYMLLIQGLQINDYVCHPVLASVILNSPPLFCCDLKGIDVVVPYFISALETILPDRELSKFKSYVNPTELRRSSINILLSLLPLPHHFGTVKSEVVLEGKFSNDDSSSYDKPITFLSLKLRLVNILIGALQTETDPNNTQMILGAMLNIVQDSALLEAIGCQMEMGGGENNLKSHSRTNSGISSASGGSTEPTTPDSERPAQALLRDYALNTDSAAGLLIRSIHLVTQRLNSQWRQDMSISLAALELLSGLAKVKVMVDSGDRKRAISSVCTYIVYQCSRPAPLHSRDLHSMIVAAFQCLCVWLTEHPDMLDEKDCLKEVLEIVELGISGSKSKNNEQEVKYKGDKEPNPASMRVKDAAEATLTCIMQLLGAFPSPSGPASPCSLVNETTLIKYSRLPTINKHSFRYFVLDNSVILAMLEQPLGNEQNDFFPSVTVLVRGMSGRLAWAQQLCLLPRGAKANQKLFVPEPRPVPKNDVGFKYSVKHRPFPEEVDKIPFVKADLSIPDLHEIVTEELEERHEKLRSGMAQQIAYEIHLEQQSEEELQKRSFPDPVTDCKPPPPAQEFQTARLFLSHFGFLSLEALKEPANSRLPPHLIALDSTIPGFFDDIGYLDLLPCRPFDTVFIFYMKPGQKTNQEILKNVESSRTVQPHFLEFLLSLGWSVDVGRHPGWTGHVSTSWSINCCDDGEGSQQEVISSEDIGASIFNGQKKVLYYADALTEIAFVVPSPVESLTDSLESNISDQDSDSNMDLMPGILKQPSLTLELFPNHTDNLNSSQRLSPSSRMRKLPQGRPVPPLGPETRVSVVWVERYDDIENFPLSELMTEISTGVETTANSSTSLRSTTLEKEVPVIFIHPLNTGLFRIKIQGATGKFNMVIPLVDGMIVSRRALGFLVRQTVINICRRKRLESDSYSPPHVRRKQKITDIVNKYRNKQLEPEFYTSLFQEVGLKNCSS
**Q.** With B1 as the binder, how does the binding [1] read?
**A.** no binding

**Q.** And the binding [2]?
**A.** binds
